Substitutions are numbered along the chain they refer to.
Tests used:
[1] = target: T1, soluble monomeric human MUC16 (hMUC16.mmh, last five SEA domains) (Homo sapiens, UniProt Q8WXI7); test: Surface plasmon resonance (Biacore) binding to hMUC16 fragment at 25° C.
T1 construct: C-terminal tags (.mmh)

[2] = Pharmacokinetics in wild-type (WT) mice; format: in vivo, mouse; conditions: single 0.4 mg/kg i.p.
[3] = Pharmacokinetics in CD3 humanized mice (CD3^hu/hu); format: in vivo, mouse
OVCAR-3/Luc [4] = test: OVCAR-3/Luc xenograft in PBMC-engrafted NSG mice, therapeutic treatment; format: in vivo; conditions: 10 μg/mouse i.p. 7 d post tumor implantation
Source text: To assess the in vivo efficacy of the anti-MUC16/anti-CD3 bispecifics in human tumor xenograft studies, NOD scid gamma (NSG) mice (Jackson Laboratories, Bar Harbor, Me.) were pre-implanted with human peripheral blood mononuclear cells (PBMCs; ReachBio LLC., Seattle, Wash.) and then given ascites cells from the human ovarian cancer cell line OVCAR-3 (American Type Tissue Culture, Manassas, Va.) transduced with luciferase (OVCAR-3/Luc). OVCAR-3 cells endogenously express MUC-16.
Briefly, NSG mice were injected intraperitoneally (i.p.) with 5.0×10^6 human PBMCs. 8 d later, 1.5×10^6 ascites cells from the OVCAR-3/Luc cell line, previously passaged in vivo, were administered i.p. to the NSG mice engrafted with PBMCs. In the immediate treatment group, mice were treated i.p. on the day of OVCAR-3/Luc cell implantation with MUC16/CD3 Bispecific antibodies BSMUC16/CD3-001 or BSMUC16/CD3-005, or an isotype control, at a dose of 10 μg/mouse (N=5 mice/treatment group). In the therapeutic dose model, mice were treated i.p. 7 d post tumor implantation with the MUC16/CD3 Bispecific or control antibodies described above, at a dose of 10 μg/mouse (N=5/treatment group).
In all studies, tumor growth was monitored via bioluminescent imaging (BLI). […] Regions of interest were drawn around each cell mass and photon intensities were recorded as photons (p)/sec (s)/cm^2/steradian (sr). […]

OVCAR-3/Luc [5] = test: OVCAR-3 model study 1 (xenogenic, NSG mice engrafted with human PBMCs); format: in vivo, mouse; conditions: for Avg Radiance 6 days post-implantation (median ± SEM): baseline, before dosing started
Method: In further experiments, the in vivo efficacy of an anti-MUC16/anti-CD3 bispecific antibody was evaluated in xenogenic and syngeneic tumor models. For the first xenogenic model, NSG mice were injected intraperitoneally (IP) with OVCAR-3/Luc cells previously passaged in vivo (Day 0) eleven days after engraftment with human PBMCs. Mice were treated IP with 0.01, 0.1, or 0.5 mg/kg BSMUC16/CD3-001, or administered 0.5 mg/kg non-binding control or CD3-binding control on Days 6, 10, 13, 16, and 21. Tumor burden was assessed by BLI on Days 6, 14, and 20 post tumor implantation. […] For the second xenogenic model, NSG mice were injected with OVCAR-3/Luc cells previously passaged in vivo (Day 0) thirteen days after engraftment with human PBMCs and a second batch of PBMCs were transferred on Day 4. Mice were treated intravenously (IV) with 0.1, 0.5, 1, or 5 mg/kg BSMUC16/CD3-005 or administered 5 mg/kg non-binding control or CD3-binding control on Days 5, 8, 12, 15, 19 and 22. Tumor burden was assessed by BLI on Days 4, 11, 18 and 25. […] To examine efficacy in an immune-competent model, the murine CD3 gene was replaced with human CD3 and a portion of the mouse MUC16 gene was replaced with the human sequence. […] For the syngeneic tumor model, ID8-VEGF cell lines engineered to express the portion of human MUC16 were used. Mice were implanted with the ID8-VEGF/huMUC16 cells subcutaneously and treated with 100 μg of BSMUC16/CD3-001 either on day of implantation or ten days after implantation when tumors were established.
Implantation and measurement of xenograft tumors: Ascites cells from the OVCAR-3/Luc cell line, previously passaged in vivo, were administered IP into the NSG mice previously engrafted with human PBMCs. BLI was measured as a read-out for tumor growth several days after OVCAR-3/Luc implantation and at multiple times during study. After initial BLI measurement for cohorting, mice were divided into groups of 4-6 animals each and administered MUC16×CD3 bispecific or control antibodies twice per week throughout the study.
Calculation of xenograft tumor growth and inhibition: Bioluminescence imaging was used to measure tumor burden. Mice were injected IP with 150 mg/kg (as determined by body weights at the start of the experiment) of the luciferase substrate D-luciferin suspended in PBS. Ten minutes after dosing, BLI imaging of the mice was performed under isoflurane anesthesia using the Xenogen IVIS system. […] Regions of interest were drawn around each tumor mass and photon intensities were recorded as p/s/cm^2/sr. […] Statistical significance for the BLI results was determined using an unpaired nonparametric Mann-Whitney t-test. Fold changes were calculated by the formula: (Day20-Day6)/Day6 for study 1 and (Day25−Day4)/Day4 for study 2.

mouse MUC16 = test: Binding to mouse MUC16 (statement only)
mouse CD3 = mouse CD3 (Mus musculus, UniProt P04235+P22646); test: Binding to mouse CD3 (statement only)
Chain of mouse CD3 (P22646 22-189): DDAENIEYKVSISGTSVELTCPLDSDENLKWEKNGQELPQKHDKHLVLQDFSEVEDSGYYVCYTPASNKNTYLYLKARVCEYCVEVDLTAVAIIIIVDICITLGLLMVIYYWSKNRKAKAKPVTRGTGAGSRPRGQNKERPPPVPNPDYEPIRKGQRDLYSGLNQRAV
Chain of mouse CD3 (P04235 22-173): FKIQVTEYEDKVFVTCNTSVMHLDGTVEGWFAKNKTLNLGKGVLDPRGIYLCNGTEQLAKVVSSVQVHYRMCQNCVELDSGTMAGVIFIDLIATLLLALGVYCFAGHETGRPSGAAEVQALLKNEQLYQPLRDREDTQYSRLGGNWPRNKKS

[6] = target: T2, PC3/MUC16 short (nub portion of MUC16, amino acids 13,810-14,507) (Homo sapiens, UniProt Q8WXI7); test: IHC staining of FFPE cell pellets: PC3/MUC16 short; format: binding
T2 construct: expressed in transfected cells; host or cells: PC3/ATCC (parental prostate cancer line, MUC16-negative)
T2 sequence (Q8WXI7 13810-14507 limits assumed): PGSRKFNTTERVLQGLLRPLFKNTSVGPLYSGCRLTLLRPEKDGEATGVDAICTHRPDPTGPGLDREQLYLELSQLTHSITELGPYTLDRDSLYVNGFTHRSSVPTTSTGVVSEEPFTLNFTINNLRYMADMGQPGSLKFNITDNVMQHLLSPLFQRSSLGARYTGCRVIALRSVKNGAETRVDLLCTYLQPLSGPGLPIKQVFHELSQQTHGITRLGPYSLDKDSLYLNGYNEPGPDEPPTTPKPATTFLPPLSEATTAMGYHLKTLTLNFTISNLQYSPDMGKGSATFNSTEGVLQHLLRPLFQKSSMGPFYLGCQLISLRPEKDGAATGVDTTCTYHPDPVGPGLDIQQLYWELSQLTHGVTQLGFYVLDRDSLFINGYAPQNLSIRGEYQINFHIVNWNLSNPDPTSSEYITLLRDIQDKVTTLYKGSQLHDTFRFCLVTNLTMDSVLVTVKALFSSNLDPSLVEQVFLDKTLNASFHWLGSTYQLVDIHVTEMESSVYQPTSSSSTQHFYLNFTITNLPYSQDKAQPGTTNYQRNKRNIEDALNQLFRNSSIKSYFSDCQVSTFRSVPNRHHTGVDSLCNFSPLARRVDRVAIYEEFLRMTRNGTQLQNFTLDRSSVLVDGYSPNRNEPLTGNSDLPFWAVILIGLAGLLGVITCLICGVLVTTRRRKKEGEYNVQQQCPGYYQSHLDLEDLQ

Cynomolgus T cells (CD3) = target: T3, Cynomolgus T cells (CD3) (Macaca fascicularis, UniProt Q95LI5+Q95LI8); test: FACS binding titration on cynomolgus T cells; conditions: Table 7B experiment (66.6 nM to 0.001 nM)
T3 construct: endogenous in cells; host or cells: primary cynomolgus T cells
T3 sequence (Q95LI5 22-198): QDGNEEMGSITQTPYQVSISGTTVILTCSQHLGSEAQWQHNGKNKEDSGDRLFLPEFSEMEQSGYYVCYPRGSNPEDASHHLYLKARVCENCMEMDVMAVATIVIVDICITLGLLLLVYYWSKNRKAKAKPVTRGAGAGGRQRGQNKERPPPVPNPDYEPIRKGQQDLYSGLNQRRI
T3 sequence (Q95LI8 22-171): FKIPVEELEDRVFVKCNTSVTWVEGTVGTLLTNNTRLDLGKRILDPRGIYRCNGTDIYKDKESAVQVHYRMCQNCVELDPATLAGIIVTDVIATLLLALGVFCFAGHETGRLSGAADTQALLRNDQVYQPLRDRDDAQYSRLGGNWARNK
T3 sequence (Q95LI7 23-181 partner): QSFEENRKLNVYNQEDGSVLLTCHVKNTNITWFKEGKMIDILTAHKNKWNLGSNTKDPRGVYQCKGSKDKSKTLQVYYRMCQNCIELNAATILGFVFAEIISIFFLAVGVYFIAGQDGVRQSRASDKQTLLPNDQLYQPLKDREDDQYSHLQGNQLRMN
Source text: B. In separate experiments with analogous conditions to that described above, flow cytometric analysis (or FACS) was utilized to determine binding of select bispecific antibodies to Jurkat cells, PEO-1, OVCAR3-Luc and cynomolgus T cells. For the titration analysis, serial dilution of selected MUC16×CD3 bispecific antibodies, a first isotype control antibody (a human chimeric IgG4 antibody that binds an irrelevant human antigen with no cross-reactivity to human or cynomolgus CD3) and a second isotype control antibody (a human chimeric IgG4 antibody that binds an irrelevant human antigen with no cross-reactivity to human MUC16), ranging from 66.6 nM to 0.001 nM.
For FACS analysis, cells were gated by forward scatter height vs. forward scatter area for single events selection, followed by side and forward scatters. The EC50 for cell binding titration was determined using PRISM™ software (GraphPad Software, Inc., La Jolla, Calif.). Values were calculated using 4-parameter non-linear regression analysis. (Liu, J., et al. 2005, Biotechnol Letters 27:1821-1827).

[7] = Table 6, anti-MUC16/anti-CD3 bispecific antibodies
[8] = Table 5A, hybridoma antibodies (H1M, H2M, H3M)

T1 sequence (Q8WXI7 with tags, fused parts or gaps): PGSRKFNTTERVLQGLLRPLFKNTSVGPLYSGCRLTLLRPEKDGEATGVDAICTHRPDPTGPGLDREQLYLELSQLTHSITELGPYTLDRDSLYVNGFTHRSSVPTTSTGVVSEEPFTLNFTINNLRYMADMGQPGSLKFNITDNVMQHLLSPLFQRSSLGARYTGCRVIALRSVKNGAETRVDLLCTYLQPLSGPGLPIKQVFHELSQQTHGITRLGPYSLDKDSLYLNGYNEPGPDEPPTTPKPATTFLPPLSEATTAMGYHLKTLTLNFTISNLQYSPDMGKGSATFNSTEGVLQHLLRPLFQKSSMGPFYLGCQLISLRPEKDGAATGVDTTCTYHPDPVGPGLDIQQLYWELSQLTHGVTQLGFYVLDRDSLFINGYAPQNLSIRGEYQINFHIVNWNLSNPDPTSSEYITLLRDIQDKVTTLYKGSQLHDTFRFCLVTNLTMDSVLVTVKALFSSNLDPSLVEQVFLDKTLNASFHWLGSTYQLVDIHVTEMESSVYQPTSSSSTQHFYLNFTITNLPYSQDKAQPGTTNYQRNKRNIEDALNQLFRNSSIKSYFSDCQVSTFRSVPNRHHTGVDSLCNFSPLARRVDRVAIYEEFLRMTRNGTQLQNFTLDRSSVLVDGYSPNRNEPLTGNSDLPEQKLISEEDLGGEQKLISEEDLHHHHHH

B1: BSMUC16/CD3-001: anti-MUC16 x CD3 bispecific antibody, IgG1 Fc; H1H8767P arm, CD3-VH-G arm (SEQ ID NO: 1730), common light chain SEQ ID NO: 26 (antibody, V domains shown)
VH 1: QVQLVESGGGLVKPGGSLRLSCAASGFTFSNYYMSWVRQAPGKGLEWISYISGRGSTIFYADSVKGRITISRDNAKNSLFLQMNSLRAEDTAVYFCVKDRGGYSPYWGQGTLVTVSS
VH 2: EVQLVESGGGLVQPGRSLRLSCAASGFTFDDYSMHWVRQAPGKGLEWVSGISWNSGSKGYADSVKGRFTISRDNAKNSLYLQMNSLRAEDTALYYCAKYGSGYGKFYHYGLDVWGQGTTVTVSS
VL: [… about 100 residues …]PITFGQGTRLEIK
ka [1, 7]: 94800 M⁻¹ s⁻¹
kd [1, 7]: 0.000586 s⁻¹
Cmax (Peak concentration) [2]: 6000 ± 400 ng/mL
Drug elimination curve ([3]; compared with BSMUC16/CD3-005 and isotype control): steeper drug elimination
Terminal antibody concentration ([3]; single 0.4 mg/kg i.p., serum): 0.03 µg/mL
Fold change in Avg Bioluminescent Radiance at Day 26 relative to Day 6 (mean ± SD) (OVCAR-3/Luc [4]): 2.0 ± 5.0
Avg Radiance 20 days post-implantation (median ± SEM) (OVCAR-3/Luc [5]; 0.01 mg/kg IP on Days 6, 10, 13, 16 and 21): 6.51e+06 ± 1.60e+06 p/s/cm2^2/sr
Avg Radiance 6 days post-implantation (median ± SEM) (OVCAR-3/Luc [5]; group 0.01 mg/kg IP): 8.77e+05 ± 7.91e+04 p/s/cm2^2/sr
Avg Radiance 6 days post-implantation (median ± SEM) (OVCAR-3/Luc [5]; group 0.1 mg/kg IP): 6.31e+05 ± 1.10e+05 p/s/cm2^2/sr
Avg Radiance 6 days post-implantation (median ± SEM) (OVCAR-3/Luc [5]; group 0.5 mg/kg IP): 7.64e+05 ± 1.19e+05 p/s/cm2^2/sr
Binding to mouse MUC16 (mouse MUC16): Neither BSMUC16/CD3-001 or BSMUC16/CD3-005 bind
Binding to mouse CD3 (mouse CD3): Neither BSMUC16/CD3-001 or BSMUC16/CD3-005 bind

B2: H2M7138N: hybridoma anti-MUC16 antibody, mIgG2; HCVR/LCVR SEQ ID NOs: 314/322 (antibody, V domains shown)
VH: QVQLVQSGAEVKKPGASVKVSCKASGYTFTSSDINWVRQATGQGLEWVGWMNPNYGYTGSARKFQDRVTMTRNTSLSTAYLELHSLRSEDTAVYYCARVTYCSSVTSCFRPFTYWGQGTLVTVSA
VL: [… about 100 residues …]PITFGQGTRLEIK
modifications: mIgG2
ka [1, 8]: 74100 M⁻¹ s⁻¹
kd [1, 8]: 9.25e-05 s⁻¹
IHC binding to cells expressing the nub portion of MUC16 without the repeat regions (PC3/MUC16 short) [6]: positive binding

B3: BSMUC16/CD3-002: anti-MUC16 x CD3 bispecific antibody, IgG1 Fc; H1H8767P arm, CD3-VH-G5 arm (SEQ ID NO: 1762) (antibody, V domains shown)
VH 1: B1 VH 1
VH 2: B1 VH 2 with K58I, Y99D, H108Y, L111M
VL: [… about 100 residues …]PITFGQGTRLEIK
EC50 (Cynomolgus T cells (CD3)): > 1000 nM

Reference: patent publication US12570764B2, “Anti-MUC16 antibodies, antibody-drug conjugates, and bispecific antigen-binding molecules that bind MUC16 and CD3, and uses thereof” (Regeneron Pharmaceuticals, Inc., priority 2016, dated 2026)
